This is one part of the list.
Key:
Test in all cases: glycan array binding signal (z-score within array); higher = stronger binding
Settings in all cases: glycan notation: IUPAC condensed, linker removed
[1] = target: GlcNAc(b1-3)Gal(b1-4)GlcNAc(b1-6)[Gal(b1-3)]GalNAc
Procedure, shortened: (§1)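 Columns mapping to the same glycan were averaged after glycan names were converted to IUPAC-condensed notation. The data come from 3228 arrays in the Consortium for Functional Glycomics database, limited to those with an available protein sequence. Binding is reported as a within-array Z-score averaged across arrays of one protein sequence and across linkers.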

[2] = target: GlcNAc(b1-3)Gal(b1-4)GlcNAc(b1-6)[GlcNAc(b1-3)Gal(b1-3)]GalNAc
Procedure, shortened: as §1

[3] = target: GlcNAc(b1-3)Gal(b1-4)GlcNAc(b1-6)[GlcNAc(b1-3)]Gal(b1-4)GlcNAc
Procedure, shortened: as §1

[4] = target: GlcNAc(b1-3)GalNAc
Procedure, shortened: as §1

[5] = target: GlcNAc(b1-3)Man
Procedure, shortened: as §1

[6] = target: GlcNAc(b1-3)[GlcNAc(b1-4)][GlcNAc(b1-6)]GlcNAc
Procedure, shortened: as §1

[7] = target: GlcNAc(b1-3)[GlcNAc(b1-6)]Gal(b1-4)GlcNAc
Procedure, shortened: as §1

[8] = target: GlcNAc(b1-3)[GlcNAc(b1-6)]GalNAc
Procedure, shortened: as §1

[9] = target: GlcNAc(b1-3)[GlcNAc(b1-6)]GlcNAc
Procedure, shortened: as §1

[10] = target: GlcNAc(b1-4)Gal(b1-4)GlcNAc
Procedure, shortened: as §1

[11] = target: GlcNAc(b1-4)GlcNAc
Procedure, shortened: as §1

[12] = target: GlcNAc(b1-4)GlcNAc(b1-4)GlcNAc
Procedure, shortened: as §1

[13] = target: GlcNAc(b1-4)GlcNAc(b1-4)GlcNAc(b1-4)GlcNAc(b1-4)GlcNAc
Procedure, shortened: as §1

[14] = target: GlcNAc(b1-4)GlcNAc(b1-4)GlcNAc(b1-4)GlcNAc(b1-4)GlcNAc(b1-4)GlcNAc
Procedure, shortened: as §1

[15] = target: GlcNAc(b1-4)[GlcNAc(b1-6)]GalNAc
Procedure, shortened: as §1

[16] = target: GlcNAc(b1-6)Gal(b1-4)GlcNAc
Procedure, shortened: as §1

[17] = target: GlcNAc(b1-6)GalNAc
Procedure, shortened: as §1

[18] = target: GlcNAc6S(b1-3)Gal(b1-4)GlcNAc
Procedure, shortened: as §1

[19] = target: Kdn(a2-3)Gal(b1-3)GalNAc
Procedure, shortened: as §1

[20] = target: Kdn(a2-3)Gal(b1-3)GlcNAc
Procedure, shortened: as §1

[21] = target: Kdn(a2-3)Gal(b1-4)Glc
Procedure, shortened: as §1

[22] = target: Kdn(a2-3)Gal(b1-4)GlcNAc
Procedure, shortened: as §1

[23] = target: Kdn(a2-3)Gal(b1-4)[Fuc(a1-3)]GlcNAc
Procedure, shortened: as §1

[24] = target: Kdn(a2-6)Gal(b1-4)GlcNAc
Procedure, shortened: as §1

[25] = target: Man(a1-2)Man(a1-2)Man(a1-3)Man
Procedure, shortened: as §1

[26] = target: Man(a1-2)Man(a1-2)Man(a1-3)[Man(a1-2)Man(a1-3)[Man(a1-2)Man(a1-6)]Man(a1-6)]Man(b1-4)GlcNAc(b1-4)GlcNAc
Procedure, shortened: as §1

[27] = target: Man(a1-2)Man(a1-2)Man(a1-3)[Man(a1-2)Man(a1-6)[Man(a1-3)]Man(a1-6)]Man(b1-4)GlcNAc(b1-4)GlcNAc
Procedure, shortened: as §1

[28] = target: Man(a1-2)Man(a1-2)Man(a1-6)[Man(a1-3)]Man
Procedure, shortened: as §1

[29] = target: Man(a1-2)Man(a1-3)Man
Procedure, shortened: as §1

[30] = target: Man(a1-2)Man(a1-3)[Man(a1-2)Man(a1-6)]Man
Procedure, shortened: as §1

[31] = target: Man(a1-2)Man(a1-3)[Man(a1-2)Man(a1-6)]Man(a1-6)[Man(a1-2)Man(a1-2)Man(a1-3)]Man
Procedure, shortened: as §1

[32] = target: Man(a1-2)Man(a1-3)[Man(a1-2)Man(a1-6)]Man(a1-6)[Man(a1-2)Man(a1-2)Man(a1-3)]Man(b1-4)GlcNAc(b1-4)GlcNAc
Procedure, shortened: as §1

[33] = target: Man(a1-2)Man(a1-3)[Man(a1-3)[Man(a1-6)]Man(a1-6)]Man(b1-4)GlcNAc(b1-4)GlcNAc
Procedure, shortened: as §1

[34] = target: Man(a1-2)Man(a1-3)[Man(a1-6)]Man(a1-6)[Man(a1-2)Man(a1-3)]Man(b1-4)GlcNAc(b1-4)GlcNAc
Procedure, shortened: as §1

[35] = target: Man(a1-2)Man(a1-6)[Man(a1-3)]Man(a1-6)[Man(a1-2)Man(a1-2)Man(a1-3)]Man
Procedure, shortened: as §1

[36] = target: Man(a1-2)Man(a1-6)[Man(a1-3)]Man(a1-6)[Man(a1-2)Man(a1-2)Man(a1-3)]Man(b1-4)GlcNAc(b1-4)GlcNAc
Procedure, shortened: as §1

[37] = target: Man(a1-3)[Man(a1-6)]Man
Procedure, shortened: as §1

B1: XL-35 (Xenopus laevis) (protein)
chain: MLVHILLLLVTGGLSQSCDPVVIVASKNMVKQLDCDKFRNCKEIKDSNEEAQDGIYTLTSPDGISYQTFCDMTTNGGGWTLVASVHENNMAGKCTIGDRWSSQQGNRADYPEGDGNWANYNTFGSAGGATSDDYKNPGYYDIEAYNLGVWHVPNKTPLSVWRNSSLQRYRTTDGILFKHGGNLFSLYRIYPVKYGIGSCSKDSGPTVPVVYDLGSANLTASFYSPGFRSQFTPGYIQFRPINTEKAALALCPGMKMESCNVEHVCIGGGGYFPEADPRQCGDFAAYDFNGYGTKKFNSAGIEITEAAVLLFYL
In the case of B1, the “glycan array binding signal (z-score)” value [1] is reported as -0.266, the “glycan array binding signal (z-score)” value [2] is reported as -0.324 and the “glycan array binding signal (z-score)” value [3] is reported as 0.558. For the same binder, the “glycan array binding signal (z-score)” value [4] was -0.048, the “glycan array binding signal (z-score)” value [5] was -0.034 and the “glycan array binding signal (z-score)” value [6] was -0.056. For the same binder, the “glycan array binding signal (z-score)” value [7] was -0.01, the “glycan array binding signal (z-score)” value [8] was -0.078 and the “glycan array binding signal (z-score)” value [9] was -0.058. For the same binder, the “glycan array binding signal (z-score)” value [10] was 4.54, the “glycan array binding signal (z-score)” value [11] was -0.157 and the “glycan array binding signal (z-score)” value [12] was 0.158. The “glycan array binding signal (z-score)” value [13] was -0.216, the “glycan array binding signal (z-score)” value [14] was 0.219 and the “glycan array binding signal (z-score)” value [15] was -0.295. For the same binder, the “glycan array binding signal (z-score)” value [16] was -0.191, the “glycan array binding signal (z-score)” value [17] was -0.291 and the “glycan array binding signal (z-score)” value [18] was 0.186. The “glycan array binding signal (z-score)” value [19] was -0.017, the “glycan array binding signal (z-score)” value [20] was -0.119 and the “glycan array binding signal (z-score)” value [21] was -0.561. For the same binder, the “glycan array binding signal (z-score)” value [22] was 0.144, the “glycan array binding signal (z-score)” value [23] was -0.248 and the “glycan array binding signal (z-score)” value [24] was -0.07. The “glycan array binding signal (z-score)” value [25] was -0.029, the “glycan array binding signal (z-score)” value [26] was -0.113 and the “glycan array binding signal (z-score)” value [27] was -0.09. For the same binder, the “glycan array binding signal (z-score)” value [28] was -0.1, the “glycan array binding signal (z-score)” value [29] was 0.041 and the “glycan array binding signal (z-score)” value [30] was -0.108. The “glycan array binding signal (z-score)” value [31] was -0.668, the “glycan array binding signal (z-score)” value [32] was -0.156 and the “glycan array binding signal (z-score)” value [33] was -0.086. For the same binder, the “glycan array binding signal (z-score)” value [34] was -0.092, the “glycan array binding signal (z-score)” value [35] was -0.347 and the “glycan array binding signal (z-score)” value [36] was -0.161. The “glycan array binding signal (z-score)” value [37] was -0.233.

Source: the supplement of paper PMC8728848
